Experimental data from the RNAGym collection of RNA variant scans (doi:10.1093/nar/gkz1192).
The source gives no read counts; variants with many changes may rest on few reads.

B1: CPEB3 Ribozyme (parent)
chain: UAACAGGGGGCCACAGCAGAAGCGUUCACGUCGCAGCCCCUGUCAGAUUCUGGUGAAUCUGCGAAUUCUGCUGUAUAUCUC

Variants of: B1
Assay: self-cleavage, relative activity (ratio to wild type); higher = more cleavage; in vitro, sequencing
Summary of the method: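 Barcoded CPEB3 ribozyme mutants, produced by rounds of error-prone PCR, self-cleaved while being transcribed with T7 RNA polymerase for 5 hours at 37°C and during a subsequent 15 min DNase I step before EDTA was added. Sequencing of template-switched cDNA on Illumina gave cleaved and total reads, and DNA sequencing assigned barcodes to variants. Each variant's relative activity is its cleaved/total read fraction divided by the unmutated ribozyme's fraction, averaged across three batches. A variant needed a minimum of 5 reads.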
A13G C14A A45G U54C U74C gave a self-cleavage of 1.08. Variant A13G C14A U31C has a self-cleavage of 0.86. A13G C14A U43C U48C U69C showed a self-cleavage of 0.06. With A13G C14U A18G U41C A56G A57G U66C the self-cleavage was 0.04. In the case of A13G C14U G30A U43A C68U, the self-cleavage is reported as 0.08. For A13G C17G U41C, the self-cleavage was 0.46. A13G C17U A56G C68G U76C gave a self-cleavage of 0.08. Work on A13G C17U U26C A45G G52C A64G yielded a self-cleavage of 0.22. A13G C23A U41C U58C G63C U72C gave a self-cleavage of 0.05. Work on A13G C23G U26A G30U U48C C59U U60C yielded a self-cleavage of 0.06. With A13G C23U U69C U78C the self-cleavage was 0.4. Work on A13G C27A A65G yielded a self-cleavage of 0.21. Variant A13G C27G U76C has a self-cleavage of 0.2. Work on A13G C29A A57U U72C yielded a self-cleavage of 0.26. With A13G C29U G52U A57G the self-cleavage was 0.11. A13G C29U U31C C38A U43C A64G showed a self-cleavage of 0.07. Work on A13G C32A A45G A56G U58C G63A C71G yielded a self-cleavage of 0.05. In the case of A13G C32U C38U, the self-cleavage is reported as 0.17. Variant A13G C32U G33A A47U U69A has a self-cleavage of 0.05. For A13G C34G U51C A57G, the self-cleavage was 0.09. A13G C34U A56G showed a self-cleavage of 0.2. For A13G C37A U41C A56U A57G U78C U80C, the self-cleavage was 0.1. A13G C39U A65G gave a self-cleavage of 0.11. A13G C39U U43G showed a self-cleavage of 0.26. Variant A13G C39U U58C has a self-cleavage of 0.41. Work on A13G C40A A45G U48G A56G A65G yielded a self-cleavage of 0.1. With A13G C40A U54C the self-cleavage was 0.22. In the case of A13G C40U A45G U67A U72A, the self-cleavage is reported as 0.13. A13G C40U A64G showed a self-cleavage of 0.29. A13G C59A U72G gave a self-cleavage of 0.05. Work on A13G G16A A20G U43C yielded a self-cleavage of 0.27. With A13G G16A U25C A56U G70A the self-cleavage was 0.13. In the case of A13G G16C A77C, the self-cleavage is reported as 0.24. For A13G G16U U41C U80A, the self-cleavage was 0.28. A13G G22U C38A gave a self-cleavage of 0.15. A13G G22U U48C gave a self-cleavage of 0.06. With A13G G24A A35G the self-cleavage was 0.11. Variant A13G G24A A56G U66C G73A has a self-cleavage of 0.18. Variant A13G G24A U25C U41C U49C has a self-cleavage of 0.15. Variant A13G G24A U43C U60A U67A has a self-cleavage of 0.05. With A13G G24A U48C U60A the self-cleavage was 0.08. With A13G G30C C44A U58C the self-cleavage was 0.08. Variant A13G G33A A35G C40U has a self-cleavage of 0.1. A13G G33C A35U U54C showed a self-cleavage of 0.09. A13G G33U A65C A77G showed a self-cleavage of 0.11. A13G G33U U41A gave a self-cleavage of 0.2. For A13G G36A C68G A75G U78C, the self-cleavage was 0.03. Variant A13G G53A A65U has a self-cleavage of 0.17. A13G G63A U69C A77G C79U gave a self-cleavage of 0.22. A13G U25A A28U U80C showed a self-cleavage of 0.13. Variant A13G U25A C40U A65G U67C U72C has a self-cleavage of 0.06. Variant A13G U25A C62U U67G U78C U80C has a self-cleavage of 0.04. A13G U25A U26C C32U A56U U60A U72C showed a self-cleavage of 0.13. Variant A13G U25A U41A A56G U66C U67C has a self-cleavage of 0.07. Variant A13G U25A U60A U78C has a self-cleavage of 0.42. In the case of A13G U25C A28G C50U, the self-cleavage is reported as 0.04. In the case of A13G U25C A35G A56G, the self-cleavage is reported as 0.12. For A13G U25C A57U, the self-cleavage was 0.1. Variant A13G U25C C27G A65U U72A U80C has a self-cleavage of 0.22. For A13G U25C C39U U49C U60G U66C, the self-cleavage was 0.21. A13G U25C G46A showed a self-cleavage of 0.21. Variant A13G U25C U31A C37U G70C U78C has a self-cleavage of 0.14. A13G U25C U41C A45U U80A gave a self-cleavage of 0.04. For A13G U25C U41C U72C U78C, the self-cleavage was 0.74. For A13G U25C U49A U58C, the self-cleavage was 0.25. Variant A13G U25C U54C A57G has a self-cleavage of 0.08. Variant A13G U25C U72G has a self-cleavage of 0.32. Variant A13G U25G A35G U72C A77G has a self-cleavage of 0.05. A13G U25G A56G U60A A64U U74C showed a self-cleavage of 0.1. Variant A13G U25G U54A A56G U58C has a self-cleavage of 0.07. Work on A13G U26A A28G A35U U67C yielded a self-cleavage of 0.16. Variant A13G U26A A45G U51C U69A has a self-cleavage of 0.19. A13G U26A C29U U60C showed a self-cleavage of 0.06. A13G U26A C39G U60A U78C showed a self-cleavage of 0. Variant A13G U26A G52C U67A has a self-cleavage of 0.29. Work on A13G U26A G61A U69A yielded a self-cleavage of 0.08. With A13G U26A U31C U41A U51A U80C the self-cleavage was 0.1. In the case of A13G U26C A28U U60C U66C, the self-cleavage is reported as 0.05. For A13G U26C A47G A64U, the self-cleavage was 0.08. With A13G U26C A77G the self-cleavage was 0.42. For A13G U26C G30A A35G, the self-cleavage was 0.06. With A13G U26C G30A U41C U54C G73A the self-cleavage was 0.06. With A13G U26C G42C A64G U66C the self-cleavage was 0.23. For A13G U26C U49A U67C, the self-cleavage was 0.07. Work on A13G U26C U60C yielded a self-cleavage of 0.1. Variant A13G U26C U66C U69A has a self-cleavage of 0.08. A13G U31A A47G U67A U76C gave a self-cleavage of 0.15. Variant A13G U31A U41C A45G U58C U72C U76C has a self-cleavage of 0.06. In the case of A13G U31C C44U U66C, the self-cleavage is reported as 0.11. A13G U31C G73A gave a self-cleavage of 0.91. A13G U31C U41A showed a self-cleavage of 0.17. Work on A13G U31C U49C yielded a self-cleavage of 0.16. In the case of A13G U31C U49C U69A, the self-cleavage is reported as 0.11. With A13G U31C U66C the self-cleavage was 0.43. A13G U31C U72G gave a self-cleavage of 0.17. Work on A13G U41A A45U A57G U69C U78C yielded a self-cleavage of 0.11. With A13G U41A A56G the self-cleavage was 0.12. A13G U41A A64G gave a self-cleavage of 0.13. Work on A13G U41A U43G U48C yielded a self-cleavage of 0.19. Work on A13G U41A U60C yielded a self-cleavage of 0.14. Work on A13G U41C A56G yielded a self-cleavage of 0.8. For A13G U41C A75U, the self-cleavage was 1.15. Work on A13G U41C C62U A64U U69C yielded a self-cleavage of 0.19. A13G U41C U43C A57G U72A gave a self-cleavage of 0.11. In the case of A13G U41C U48C U66C, the self-cleavage is reported as 0.38. A13G U41C U76C A77G showed a self-cleavage of 1.13. A13G U43C A64U gave a self-cleavage of 0.57. Variant A13G U43C U48C has a self-cleavage of 0.06. Work on A13G U43C U49C U51C yielded a self-cleavage of 0.2. For A13G U43C U60G, the self-cleavage was 0.25. Work on A13G U48C A56G U74C yielded a self-cleavage of 0.2. For A13G U48C G55A G63U U72C U76C, the self-cleavage was 0.24. A13G U48C U60C U67C A75G U78C showed a self-cleavage of 0.12. For A13G U48C U74C, the self-cleavage was 0.48. Work on A13G U48C U78C yielded a self-cleavage of 0.42. A13G U49A U51A showed a self-cleavage of 0.28. Work on A13G U49A U60C U69C yielded a self-cleavage of 0.14. A13G U49C A56G showed a self-cleavage of 0.91. A13G U49C A57G A65G gave a self-cleavage of 0.03. A13G U49C U51A U69A U78G showed a self-cleavage of 0.15. A13G U51A G63A U69C U78A showed a self-cleavage of 0.44. In the case of A13G U51A U76C, the self-cleavage is reported as 0.95. With A13G U51C A64G U72C the self-cleavage was 0.43. A13G U51C U54C showed a self-cleavage of 0.69. For A13G U54A A77C U80C, the self-cleavage was 0.72. In the case of A13G U54A U69C, the self-cleavage is reported as 0.23. A13G U54C C81A showed a self-cleavage of 0.99. With A13G U54C U80C the self-cleavage was 1.05. A13G U58A G73U gave a self-cleavage of 0.3. In the case of A13G U58A U72C, the self-cleavage is reported as 0.2. With A13G U58C A64G U69A U72C U80C the self-cleavage was 0.16. In the case of A13G U60C A65G A77G, the self-cleavage is reported as 0.25. A13G U60C U67C A77G U80C showed a self-cleavage of 0.14. For A13G U66C C68U, the self-cleavage was 0.21. Variant A13G U67C U80C has a self-cleavage of 0.19. For A13G U69A U76A, the self-cleavage was 0.39. In the case of A13G U69C U80A, the self-cleavage is reported as 0.43. In the case of A13G U72C U80C, the self-cleavage is reported as 0.93. In the case of A13G U76C U80A, the self-cleavage is reported as 1.21. Variant A13U A15G A20G U26A U48C has a self-cleavage of 0.04. In the case of A13U A15G A28G U48C A56G U66C, the self-cleavage is reported as 0.15. For A13U A15G A28G U78C, the self-cleavage was 0.78. With A13U A15G A35G C71U A77G the self-cleavage was 0.24. A13U A15G A45U showed a self-cleavage of 0.25. Variant A13U A15G A45U U54C A56G U72G has a self-cleavage of 0.1. A13U A15G A64G U78A gave a self-cleavage of 0.74. In the case of A13U A15G C23U U31A G33A U41A, the self-cleavage is reported as 0.2. A13U A15G C37U A47G U51A U72G U76C gave a self-cleavage of 0.32. With A13U A15G G33U U48C U51G U54A C62U the self-cleavage was 0.04. Variant A13U A15G U26A A28G U41A U49C has a self-cleavage of 0.08. A13U A15G U26A A28U U49A A56U A57G gave a self-cleavage of 0.31. Work on A13U A15G U54C A56U U78A yielded a self-cleavage of 0.12. Variant A13U A15G U80C has a self-cleavage of 1.16. A13U A15U A28G U41G A56U A64G U78C gave a self-cleavage of 0.11. In the case of A13U A15U A64G U66C, the self-cleavage is reported as 0.17. A13U A15U G24C U31C A56G A57U U69A showed a self-cleavage of 0.05. Work on A13U A15U U67A yielded a self-cleavage of 0.28. Work on A13U A15U U67C yielded a self-cleavage of 0.16. Work on A13U A18C A20G U25A U41C G46A yielded a self-cleavage of 0.22. A13U A18C A35G C40U G55U U69C U80C showed a self-cleavage of 0.15. A13U A18C C34G A64G gave a self-cleavage of 0.22. With A13U A18G A20G the self-cleavage was 0.58. Work on A13U A18G A20U A28U G30A yielded a self-cleavage of 0.25. For A13U A18G A21U A35U U43C C62U A65U, the self-cleavage was 0.04. With A13U A18G A21U G70C the self-cleavage was 0.13. In the case of A13U A18G A47G U69C, the self-cleavage is reported as 1.26. With A13U A18G C38U C50A U54A U72C the self-cleavage was 0.11.
